# Source: PubChem BioAssay AID602310 (National Center for Advancing Translational Sciences (NCATS), 2012)
# Several values for one entry are separate records, joined by “and”; a condition that tells them apart may be missing. Identical values can stand only once. Hit rate of the full screen: of about 410,000 compounds, about 310 (0.076%) were called active. The shares of active, inactive and inconclusive entries below differ from those in the screen. Calls follow the shape of the dose curve; as a rule, active = well fitted curve in the direction sought with a large enough effect; inconclusive = small, poorly fitted or top-dose-only effect; inactive = flat fitted curve, though single readings scatter. Potencies beside an inconclusive call are fits to weak or partial responses and may not hold up.
# Biological target: DNA dC->dU-editing enzyme APOBEC-3G (Homo sapiens) (UniProt Q9HC16)
# Assay: qHTS for Inhibitors of Vif-A3G Interactions: qHTS; also: nearly all actives have a fitted effect of over 60% in size
# Conditions: HeLa A3G-eYFP + Vif (tagged APOBEC3G with the HIV-1 protein that degrades it), YFP fluorescence, overnight; series mostly up to 46.1 µM
# Source text: The recent discovery and characterization of host restriction factors, which provide a potent defense to invading retroviruses, has provided new targets for antiviral drug development. APOBEC3G (A3G) and APOBEC3F (A3F) are potent cytidine deaminases that block HIV-1 replication; HIV-1 expresses the Vif protein, which counteracts A3G and A3F by binding to them and inducing their proteasomal degradation. The Vif-A3G and Vif-A3F interactions provide two potential targets for development of small molecules which can interfere with the ability of Vif to degrade A3G or A3F. […] To identify inhibitors that can interfere with Vif mediated degradation of A3G and A3F, we have developed Hela cell lines that stably express A3G or A3F tagged with eYFP at the C-terminal end (A3G-eYFP or A3F-eYFP, respectively) and Vif. In the absence of an inhibitor, Vif induces degradation of A3G-eYFP and A3F-eYFP, and the cells are not fluorescent. In the presence of an inhibitor, it is expected that Vif will be unable to degrade A3G-eYFP and/or A3F-eYFP, resulting in an increase in yellow fluorescence. In this assays Vif A3G was screened against the Molecular Library Small Molecule Repository (MLSMR). NIH Chemical Genomics Center [NCGC] NIH Molecular Libraries Probe Centers Network [MLPCN] MLPCN Grant: MH093245 Assay Submitter (PI): Vinay Pathak, National Cancer Institute
# 5 uL of 700 cells/well of A3G-YFP cells are dispensed into black, clear bottom plates. The plates are incubated overnight at 37 deg C. 23 nL of compounds are added by pintool. The plates are incubated overnight at 37 deg C and then read on the TTP Acumen (Ex 488/ Em 500-530).
# Potency is read from the fitted curve at half-maximal effect.
# Chain of UniProt Q9HC16 (Q9HC16 whole entry, looked up): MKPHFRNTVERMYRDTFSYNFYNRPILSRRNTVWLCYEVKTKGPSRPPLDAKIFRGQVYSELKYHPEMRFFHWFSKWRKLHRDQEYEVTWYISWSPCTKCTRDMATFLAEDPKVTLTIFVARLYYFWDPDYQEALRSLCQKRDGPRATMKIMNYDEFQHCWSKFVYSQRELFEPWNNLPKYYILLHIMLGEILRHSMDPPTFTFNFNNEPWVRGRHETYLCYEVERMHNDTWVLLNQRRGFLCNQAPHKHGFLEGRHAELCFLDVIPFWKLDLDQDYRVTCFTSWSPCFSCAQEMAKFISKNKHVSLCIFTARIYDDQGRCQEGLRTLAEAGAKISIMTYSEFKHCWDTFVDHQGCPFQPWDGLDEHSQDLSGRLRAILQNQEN
row,Structure (SMILES),Potency
1,C=CCNc1nc2cc(-c3ccccc3OC)sc2c(=O)n1C,"inconclusive: 31.6 µM [inhibitor, single point]"
2,Cc1ccc2c(c1)CCCN2C(=O)c1cnn2c1NC(=C1CC1)C=C2C(F)F,"inconclusive: 7.08 µM [inhibitor, partial curve]"
3,CCOC(=O)c1ccc(NC(=O)CSc2nc3c([nH]c4ccccc43)c(=O)n2C)cc1,"inconclusive: 15.8 µM [inhibitor, single point]"
4,CC1=Nc2ccc(C)cc2/C1=C/c1c(N)n2oc(C)cc2nc1=O,"inconclusive: 15.8 µM [inhibitor, partial curve, poor fit] and inconclusive: 22.4 µM [inhibitor, single point]"
5,Cc1cc(C)c(C(=O)COc2cccnc2[N+](=O)[O-])cc1C,"inconclusive: 35.5 µM [inhibitor, single point]"
6,COc1ccc(NC(=O)C(=O)NCCC2CCCCN2S(=O)(=O)c2cccs2)cc1 (stereo unspecified),"inconclusive: 1 µM [inhibitor, full curve, poor fit]"
7,CCCCCOc1ccc(C(=O)NCC(=O)NCC(=O)OCC)cc1,"inconclusive: 10 µM [inhibitor, partial curve]"
8,CCN(CC)c1ccc2cc(-c3nc(-c4cc(OC)c(OC)c(OC)c4)no3)c(=O)oc2c1,"inconclusive: 0.891 µM [inhibitor, full curve, poor fit]"
9,COc1ccc(CNS(=O)(=O)c2cc(-c3cc(C)no3)ccc2C(C)C)cc1,"inconclusive: 0.708 µM [inhibitor, full curve, poor fit]"
10,Cc1ccc(NC(=O)CC2Sc3ccccc3NC2=O)c(Br)c1 (stereo unspecified),inactive
11,COc1cc(/C=N/NC(=O)c2ccc(O)cc2)ccc1OCC(=O)Nc1cccc([N+](=O)[O-])c1,inactive
12,Cc1cccc(N2CCN(c3ncnc4c3c(-c3ccccc3)cn4-c3ccccc3)CC2C)c1 (stereo unspecified),inactive
13,Cc1cc(N(C)Cc2ccccc2)nc(-c2ccccc2)n1,"inconclusive: 10 µM [inhibitor, partial curve, poor fit]"
14,COc1ccc(NC(=O)C2(C)Cc3c(-c4ccc(C(N)=O)cc4)ccnc3O2)cn1 (stereo unspecified),"inconclusive: 25.1 µM [inhibitor, single point]"
15,CC(C)(C)c1ccc(C(=O)CC(Sc2ccc(Cl)cc2)C(=O)O)cc1 (stereo unspecified),"inconclusive: 20 µM [inhibitor, single point]"
16,Cc1ccc2c(/C=C/c3ccc(N(C)C)cc3)ccnc2c1,"inconclusive: 20 µM [inhibitor, partial curve, poor fit]"
17,CCOCCc1nnc(NC(=O)C(=O)c2cc(C)n(-c3cccc(Cl)c3)c2C)s1,inactive
18,Cc1ccc(-c2nn(-c3ccccc3)cc2/C=C(\C#N)C(=O)NCc2ccccc2)cc1,inactive
19,CN(C)c1cccc(F)c1C(=O)NC(=O)Nc1ccc(Cl)cc1,"inconclusive: 2.82 µM [inhibitor, full curve, poor fit]"
20,NNC(=O)c1oc2nc(-c3ccco3)cc(-c3ccco3)c2c1N,"inconclusive: 20 µM [inhibitor, single point]"
21,CCc1cc(C(=O)N/N=C/c2ccc(O)cc2)c2ccccc2n1,"inconclusive: 20 µM [inhibitor, single point]"
22,O=C(c1ccco1)N1CCN(C(=O)c2cc(-c3ccccn3)nc3ccccc23)CC1,inactive

row,Structure (SMILES),Potency
1,S=C(N/N=C1\CCc2ccccc21)NC1CCCCC1,inactive
2,COc1ccc(NC(=O)CSC2=C(C#N)C(c3ccco3)C(C(=O)Nc3nc4ccccc4s3)=C(C)N2)cc1 (stereo unspecified),inactive
3,CCOC(=O)N1CCN(C(=O)CCCCCn2c(=S)[nH]c3cc4c(cc3c2=O)OCO4)CC1,inactive
4,O=C(COc1cccc2ccccc12)NNC(=O)Nc1ccccc1,"inconclusive: 35.5 µM [inhibitor, single point]"
5,O=C1S/C(=C\C=C\c2ccco2)C(=O)N1c1ccc(O)cc1,"inconclusive: 28.2 µM [inhibitor, single point]"
6,CSC1=NSC2=NC(=O)/C(=C/c3coc4ccc(O)cc4c3=O)C(=N)N12,"inconclusive: 35.5 µM [inhibitor, single point]"
7,Cc1ccc2c(c1)Oc1ccc(NC(=O)CCCl)cc1C(=O)N2,"inconclusive: 5.62 µM [inhibitor, full curve]"
8,O=C(NN1C(=O)c2ccccc2NC1c1ccc([N+](=O)[O-])o1)c1ccc(Br)cc1 (stereo unspecified),"inconclusive: 25.1 µM [inhibitor, single point]"
9,Cc1ccc(NC(=O)c2ccc([N+](=O)[O-])o2)cc1C,"inconclusive: 10 µM [inhibitor, partial curve, poor fit]"
10,NC(=O)c1ccc(-n2nnnc2SCC(=O)c2ccc(O)c(O)c2)cc1,inactive
11,O=C(CCl)Nc1ccc(N=Nc2ccccc2)cc1,"inconclusive: 35.5 µM [inhibitor, single point]"
12,COc1ccc(/C=C2/SC(=S)N(CCCC(=O)Nc3ccc(O)cc3)C2=O)cc1OC,"inconclusive: 35.5 µM [inhibitor, single point]"
13,COc1ccc(Cl)cc1NC(=O)Cn1nnc(C(=O)NCc2cccs2)c1N,"inconclusive: 2.24 µM [inhibitor, full curve, poor fit]"
14,CCCN1C(=O)/C(=C/c2c(N3CCNC(=O)C3CC(=O)OCC)nc3c(C)cccn3c2=O)SC1=S (stereo unspecified),"inconclusive: 2.82 µM [inhibitor, partial curve, poor fit]"
15,Nc1nc(Nc2ccccc2F)nc(N2CCCC2)c1[N+](=O)[O-],"inconclusive: 11.2 µM [inhibitor, partial curve]"
16,CCOC(=O)C(=CNc1ccc(O)c(C(=O)OC)c1)C(=O)OCC,inactive
17,C(=C\c1ccnc2ccccc12)/c1ccnc2ccccc12,inactive
18,N#C/C(=C\c1ccc(Cl)cc1)c1nc2ncccc2[nH]1,"inconclusive: 10 µM [inhibitor, partial curve, poor fit]"
19,Cc1cc(=O)[nH]c(N/N=C/c2ccc(O)c(O)c2)n1,inactive
20,COCCNC(=O)Cn1cc2c(n1)-c1c(oc(C(=O)N3CCCC3)c1C)CC2,"inconclusive: 6.31 µM [inhibitor, single point]"
21,CCOc1cc(/C=C/c2cc(C(F)(F)F)[nH]c(=O)n2)ccc1O,"inconclusive: 35.5 µM [inhibitor, single point]"
22,Oc1c(Cl)cc(Cl)cc1/C=N/Nc1ncc(Br)cn1,inactive

row,Structure (SMILES),Potency
1,CC(=O)N1CCc2cc(S(=O)(=O)N3c4ccccc4CC3C)ccc21 (stereo unspecified),"inconclusive: 3.16 µM [inhibitor, full curve, poor fit]"
2,COC1=C(Nc2ccccc2OC)C(=O)c2ccccc2C1=O,inactive
3,COc1ccc(CN(C(=O)c2ccco2)c2ccc(C)c(C)c2)cc1,"inconclusive: 3.16 µM [inhibitor, full curve, poor fit]"
4,O=C(NCc1ccccc1)NC1(C(=O)N2CCCC2)CCCCC1,inactive
5,c1ccc(-n2nnnc2-c2cccc3ccccc23)cc1,"inconclusive: 1.41 µM [inhibitor, full curve]"
6,COc1ccccc1N1C(=O)C2C(C(=O)c3ccccc3)=NN(c3ccc(C)cc3)C2C1=O (stereo unspecified),"inconclusive: 17.8 µM [inhibitor, partial curve, poor fit]"
7,COc1ccc(C2c3c(ncn(CCN4CCOCC4)c3=N)Oc3ccc4ccccc4c32)cc1 (stereo unspecified),"inconclusive: 35.5 µM [inhibitor, single point]"
8,Cc1cc(O)cc(O)c1C=NCc1ccco1,"inconclusive: 22.4 µM [inhibitor, single point]"
9,CCOC(=O)c1[nH]c(C)c(C(=O)OCc2ccccc2F)c1C,"inconclusive: 3.98 µM [inhibitor, partial curve]"
10,COc1cc(C(=O)NNC(=O)C2CC=CCC2C(=O)O)cc(OC)c1OC (stereo unspecified),"inconclusive: 35.5 µM [inhibitor, single point]"
11,N#CC1=C(N)C(C#N)(C#N)C(c2ccncc2)C2CN(C(=O)OCc3ccccc3)CC=C12 (stereo unspecified),"inconclusive: 17.8 µM [inhibitor, single point]"
12,C=C(C)Cn1c(SCC(=O)N/N=C/c2cccc(O)c2)nc2ccccc2c1=O,"inconclusive: 25.1 µM [inhibitor, single point]"
13,Cc1ccc2ccc3cc(C(=O)Nc4ccc(C)c(F)c4)nc3c2[nH]1,active: 12.6 µM
14,CCOc1ccc(/C=C/c2ccc3ccccc3n2)cc1OCC,"inconclusive: 11.2 µM [inhibitor, partial curve, poor fit]"
15,O=c1ccc2ccccc2c2ccccc12,"inconclusive: 2.51 µM [inhibitor, full curve, poor fit]"
16,c1ccc(C2[C@H]3CN(Cc4cccnc4)[C@H](c4ccccc4)C34CC2(c2ccccc2)C4)cc1 (stereo partly specified),"inconclusive: 11.2 µM [inhibitor, partial curve, poor fit]"
17,Cc1cc(NC(=O)c2ccco2)cc(-c2nc3cc(Cl)ccc3o2)c1O,"inconclusive: 31.6 µM [inhibitor, single point]"
18,Oc1ccc(CN2CCN(c3ccccc3)CC2)c2cccnc12,inactive
19,O=C1ON=C(c2ccc([N+](=O)[O-])cc2)/C1=C/c1ccccc1O,inactive
20,CCOc1ccc(NC(=O)CC2C(=O)N(c3cccc(C)c3)C(=O)N2CCC2=CCCCC2)cc1 (stereo unspecified),inactive
21,Cc1nc(-c2ccccc2)sc1-c1nc(-c2ccncc2)ncc1S(=O)(=O)c1ccccc1,inactive
22,CC(=O)c1ccc(-c2cnc3c(NC=O)cc(-c4cccc(C(=O)N(C)C)c4)cn23)cc1,"inconclusive: 20 µM [inhibitor, single point]"
